Among all 39,000 compounds or so, about 220 (0.56%) showed activity. This is one part of the list.
These molecules were tested on Escherichia coli K-12 BW25113 (assay: relative growth (OD600 normalised to plate interquartile mean) (fraction); higher = less growth inhibition, active = 0.2 or less). Settings: 50 µM; LB; incubation time: overnight (16-24 h).
For `O=C(O)C(O)C(O)C(OC1OC(CO)C(O)C(O)C1O)C(O)CO` (stereo not given), the relative growth was inactive: 0.9.
For `C[C@@H]1CN([C@H](C)CO)C(=O)c2cc(N(C)C)ccc2O[C@@H](C)CCCCO[C@@H]1CN(C)C(=O)Nc1cccc2ccccc12`, the relative growth was inactive: 1.01.
In the case of `C[C@H]1CCCCO[C@@H](CN(C)Cc2ccncc2)[C@@H](C)CN([C@@H](C)CO)C(=O)c2cc(NC(=O)Cc3ccccc3)ccc2O1`, the relative growth is reported as inactive: 0.984.
For `C[C@H]1CCCCO[C@H](CN(C)C(=O)c2ccccc2)[C@@H](C)CN([C@@H](C)CO)C(=O)c2cc(NS(=O)(=O)c3cccs3)ccc2O1`, the relative growth was inactive: 1.01.
For `CC1CCc2cc(F)cc3c(=O)c(C(=O)O)cn1c23` (stereo not given), the relative growth was active: 0.0455.
`Cc1noc(C)c1S(=O)(=O)N(C)C[C@H]1Oc2ccc(N(C)C)cc2CC(=O)N([C@@H](C)CO)C[C@@H]1C` was tested, and the relative growth was inactive: 0.998.
With `COc1ccc(S(=O)(=O)N(C)C[C@@H]2Oc3ccc(NC(=O)Nc4cccc5ccccc45)cc3C(=O)N([C@H](C)CO)C[C@H]2C)cc1` the relative growth was inactive: 1.03.
In the case of `COc1ccc(-c2cnc3c(c2)C(=O)N([C@H](C)CO)C[C@H](C)[C@@H](CN(C)C(=O)C2CCOCC2)O3)cc1`, the relative growth is reported as inactive: 0.977.
In the case of `C[C@@H]1CN([C@@H](C)CO)C(=O)c2cc(NC(=O)Nc3ccc(F)cc3)ccc2O[C@@H](C)CCCCO[C@@H]1CN(C)C(=O)C1CCCCC1`, the relative growth is reported as inactive: 1.01.
For `O=C(C[C@H]1C=C[C@H](NC(=O)C2CC2)[C@H](CO)O1)NCCCN1CCOCC1`, the relative growth was inactive: 1.01.
In the case of `C[C@@H]1CN([C@@H](C)CO)C(=O)Cc2cc(NC(=O)C3CC3)ccc2O[C@@H]1CN(C)S(=O)(=O)c1cccs1`, the relative growth is reported as inactive: 1.04.
In the case of `C[C@@H]1CCCCO[C@H](CN(C)C(=O)C2CCCCC2)[C@@H](C)CN([C@H](C)CO)C(=O)c2cc(NC(=O)Nc3ccc(C(F)(F)F)cc3)ccc2O1`, the relative growth is reported as inactive: 0.999.
With `CCNC(=O)[C@H]1[C@H](CO)[C@H]2Cn3c(ccc(-c4cccc(OC)c4)c3=O)[C@H]2N1S(C)(=O)=O` the relative growth was inactive: 1.02.
With `C[C@H]1CCCCO[C@H](CN(C)Cc2ccccc2)[C@@H](C)CN([C@@H](C)CO)C(=O)c2cc(NC(=O)Nc3ccc4c(c3)OCO4)ccc2O1` the relative growth was inactive: 0.986.
With `C[C@@H]1CCCCO[C@H](CN(C)C(=O)NC2CCCCC2)[C@H](C)CN([C@H](C)CO)C(=O)c2cc(NS(=O)(=O)c3ccc(Cl)cc3)ccc2O1` the relative growth was inactive: 1.02.
With `CC(C)Cc1ccc(/C=C/C=O)cc1` the relative growth was inactive: 0.975.
`COc1ccc(S(=O)(=O)N(C)C[C@@H]2Oc3c(NS(=O)(=O)c4ccc(C)cc4)cccc3C(=O)N([C@@H](C)CO)C[C@@H]2C)cc1` was tested, and the relative growth was inactive: 1.02.
In the case of `C[C@@H]1CN([C@H](C)CO)C(=O)c2cc(NC(=O)Cc3ccccc3)ccc2O[C@@H]1CN(C)Cc1ccc(-c2ccccc2)cc1`, the relative growth is reported as inactive: 0.961.
In the case of `O=C(CCCCCC(=O)N/N=C/[C@H](O)[C@@H](O)[C@H](O)[C@H](O)CO[C@H]1O[C@H](CO)[C@H](O)[C@H](O)[C@H]1O)NO`, the relative growth is reported as inactive: 1.
With `O=S1(=O)C[C@H](NC[C@H]2C[C@@H]3C=C[C@H]2C3)[C@@H](O)C1` the relative growth was inactive: 1.03.
`C[C@H](CO)N1C[C@H](C)[C@H](CN(C)Cc2ccc(Cl)c(Cl)c2)Oc2ccc(NC(=O)NC3CCCCC3)cc2CC1=O` was tested, and the relative growth was inactive: 0.999.
In the case of `C[C@H](CO)N1C[C@H](C)[C@@H](CN(C)Cc2ccc3c(c2)OCO3)Oc2ccc(NC(=O)Nc3cccc4ccccc34)cc2CC1=O`, the relative growth is reported as inactive: 0.978.
With `CN(C)CC(=O)N[C@H]1CC[C@H](CCn2cc(CN(C)C)nn2)O[C@H]1CO` the relative growth was inactive: 0.995.
For `C[C@H](CO)N1C[C@H](C)[C@@H](CN(C)S(C)(=O)=O)Oc2c(NC(=O)c3nc4ccccc4s3)cccc2C1=O`, the relative growth was inactive: 0.988.
In the case of `COCC(=O)Nc1ccc2c(c1)C(=O)N(C)C[C@H](OC)[C@H](C)CN(Cc1cccc(F)c1)[C@@H](C)CO2`, the relative growth is reported as inactive: 1.02.
With `CC(CCC(=O)O)C1CCC2C3CCC4CCCCC4(C)C3CCC12C` (stereo not given) the relative growth was inactive: 1.07.
For `Cc1cc(C)n2nc(SCC(=O)O)nc2n1`, the relative growth was inactive: 0.954.
With `C=C(CC[C@@H](C)[C@H]1CC[C@@]2(C)C3=C(C[C@H](O)[C@]12C)[C@@]1(C)CC[C@@H](OC(=O)CC(=O)O)C(C)(C)[C@@H]1CC3)[C@@H](C)C(=O)O` the relative growth was inactive: 0.89.
`COc1ccc(S(=O)(=O)N(C)C[C@@H]2Oc3c(NC(=O)c4cnccn4)cccc3C(=O)N([C@@H](C)CO)C[C@@H]2C)cc1` was tested, and the relative growth was inactive: 0.977.
In the case of `C=CCOC(=O)[C@H]1[C@@H]2C(=O)O[C@@H](c3ccccc3)[C@@H](c3ccccc3)N2[C@@H](c2ccc(OCCOC(=O)[C@H]3C[C@H]4C(=O)N[C@@H](Cc5ccccc5)C(=O)N4[C@H]3c3cccc(OCCO)c3)cc2)[C@]12C(=O)Nc1ccc(I)cc12`, the relative growth is reported as inactive: 1.04.
In the case of `C[C@@H]1CN([C@@H](C)CO)C(=O)c2cc(NS(=O)(=O)c3ccccc3)ccc2O[C@H]1CN(C)S(=O)(=O)c1ccc(F)cc1`, the relative growth is reported as inactive: 1.01.
With `C[C@@H]1CN([C@@H](C)CO)C(=O)c2cccc(NC(=O)Nc3cccc4ccccc34)c2O[C@H]1CN(C)C(=O)Nc1ccc(F)cc1` the relative growth was inactive: 1.
In the case of `C[C@@H]1CN([C@@H](C)CO)C(=O)c2cc(NC(=O)Nc3ccc(C(F)(F)F)cc3)ccc2O[C@@H]1CN(C)C(=O)Nc1ccc(C(F)(F)F)cc1`, the relative growth is reported as inactive: 0.998.
With `COc1ccc(NC(=O)N(C)C[C@H]2OCCCC[C@@H](C)Oc3ccc(NC(=O)NC4CCCCC4)cc3C(=O)N([C@H](C)CO)C[C@H]2C)cc1` the relative growth was inactive: 1.02.
For `CN(C)CCCNC(=O)C1CCNCC1`, the relative growth was inactive: 0.999.
For `CC(C)NC(=O)Nc1ccc2c(c1)C(=O)N([C@@H](C)CO)C[C@@H](C)[C@@H](CN(C)S(C)(=O)=O)OCCCC[C@@H](C)O2`, the relative growth was inactive: 1.
In the case of `COCC(=O)N1CC(C)(C)c2cc(-c3csc(NC(=O)c4ccc(F)c(OC(F)(F)F)c4)n3)ccc21`, the relative growth is reported as inactive: 1.
In the case of `COc1ccc(S(=O)(=O)Nc2ccc3c(c2)CC(=O)N([C@@H](C)CO)C[C@H](C)[C@H](CN(C)C)O3)cc1`, the relative growth is reported as inactive: 0.989.
`C[C@H](O)C#Cc1ccc2c(c1)O[C@@H](CN(C)C)[C@H](C)CN([C@@H](C)CO)S2(=O)=O` was tested, and the relative growth was inactive: 0.987.
For `C[C@@H]1CN([C@H](C)CO)C(=O)Cc2cc(NC(=O)Cc3ccccc3)ccc2O[C@H]1CN(C)S(=O)(=O)c1ccccc1`, the relative growth was inactive: 0.983.
`COc1ccc(CN(C)C[C@@H]2Oc3ccc(NS(C)(=O)=O)cc3CC(=O)N([C@@H](C)CO)C[C@@H]2C)cc1` was tested, and the relative growth was inactive: 0.984.
For `C[C@H]1CN([C@@H](C)CO)C(=O)c2cccc(NS(C)(=O)=O)c2O[C@@H]1CN(C)Cc1ccc2c(c1)OCO2`, the relative growth was inactive: 1.04.
`COc1cc(O)c2c(=O)c3cc(OC)c(OC)cc3oc2c1` was tested, and the relative growth was inactive: 1.05.
`CCS(=O)(=O)Nc1ccc2c(c1)C(=O)N(C)C[C@@H](OC)[C@H](C)CN(CCC(F)(F)F)[C@@H](C)CO2` was tested, and the relative growth was inactive: 0.971.
With `Cc1noc(C)c1S(=O)(=O)Nc1ccc2c(c1)C(=O)N([C@@H](C)CO)C[C@H](C)[C@@H](CN(C)C(=O)Nc1ccc(C(F)(F)F)cc1)OCCCC[C@@H](C)O2` the relative growth was inactive: 1.03.
With `Cc1noc(C)c1NC(=O)Nc1ccc2c(c1)C(=O)N([C@H](C)CO)C[C@H](C)[C@H](CN(C)C(=O)Nc1c(C)noc1C)OCCCC[C@H](C)O2` the relative growth was inactive: 0.999.
In the case of `O=C(OCc1cccc(O)c1O[C@@H]1O[C@H](CO)[C@@H](O)[C@H](O)[C@H]1O)[C@]1(O)C(=O)[C@@H]2C=C[C@H]1c1c2ccc(O)c1O`, the relative growth is reported as inactive: 1.
In the case of `COc1ccccc1OCCNCC(O)COc1cccc2[nH]c3ccccc3c12` (stereo not given), the relative growth is reported as inactive: 0.8.
`O=C(Cc1ccncc1)Nc1ccc2c(c1)[C@@H]1C[C@@H](CC(=O)N3CCc4ccccc4C3)O[C@H](CO)[C@@H]1O2` was tested, and the relative growth was inactive: 0.988.
For `C[C@H]1CCCCO[C@H](CN(C)C(=O)Nc2ccccc2)[C@@H](C)CN([C@@H](C)CO)C(=O)c2cc(NC(=O)Nc3ccc(F)cc3)ccc2O1`, the relative growth was inactive: 0.969.
With `CS(=O)(=O)N1C[C@H]2CN(Cc3ccncc3)C(=O)[C@@H]2C1` the relative growth was inactive: 0.995.
With `C[C@H](CO)N1C[C@H](C)[C@@H](CN(C)Cc2ccc(Cl)c(Cl)c2)Oc2ccc(NC(=O)C3CCCCC3)cc2CC1=O` the relative growth was inactive: 0.97.
`COc1ccc(S(=O)(=O)Nc2ccc3c(c2)CC(=O)N([C@@H](C)CO)C[C@H](C)[C@@H](CN(C)C)O3)cc1` was tested, and the relative growth was inactive: 1.
For `COc1ccc(CN(C)C[C@@H]2OCCCC[C@H](C)Oc3ccc(NC(=O)Nc4ccc(C(F)(F)F)cc4)cc3C(=O)N([C@@H](C)CO)C[C@H]2C)cc1`, the relative growth was inactive: 0.97.
`C[C@@H]1CN([C@@H](C)CO)C(=O)c2cc(NC(=O)c3ccccc3)ccc2O[C@@H](C)CCCCO[C@@H]1CN(C)S(=O)(=O)c1ccc(Cl)cc1` was tested, and the relative growth was inactive: 1.02.
In the case of `CC(=O)N(O)CCC[C@H]1NC(=O)CNC(=O)CNC(=O)CNC(=O)[C@@H](CCCN(O)C(C)=O)NC(=O)[C@@H](CCCN(O)C(C)=O)NC1=O`, the relative growth is reported as inactive: 0.966.
`CC(C)NC(=O)N[C@@H]1C=C[C@@H](CC(=O)NCCN2CCCC2)O[C@H]1CO` was tested, and the relative growth was inactive: 0.998.
With `COc1ccc(C(C)=O)c(O)c1` the relative growth was inactive: 0.861.
With `COc1ccc([N+](=O)[O-])cc1CNCCO` the relative growth was inactive: 1.03.
For `O=C(C[C@H]1C=C[C@H](NC(=O)CN2CCOCC2)[C@H](CO)O1)NC1CCC1`, the relative growth was inactive: 0.997.
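Further: static incubation at 37 °C against the wild-type strain, values averaged over two biological replicates.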
